Experimental data published in PubChem BioAssay AID1347073 (National Center for Advancing Translational Sciences (NCATS), 2019).
The campaign covered roughly 45,000 compounds. About 200 (0.44%) were called active. Inconclusive results (about 7%) are left out. The call rests on the fitted dose curve; in most records, active means well fitted activation curve with a large enough effect; inconclusive means small, poorly fitted or top-dose-only effect; inactive means no such curve, though single readings can be large or run the other way. Some of the results follow.

Experiment: qHTS of TDP-43 Inhibitors: NCGC Sytravon Library Screen; further: nearly all actives have a fitted effect of over 55% in size; on growth rescue (activation): 0% is about no effect
Conditions: yeast TDP-43 toxicity rescue, BacTiter-Glo growth, 24 h; series mostly up to 46.1 µM; growth rescue (activation): at the top concentration
Summary of the method: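 TDP-43-expressing yeast, pregrown in raffinose, seeded at OD600 0.02 in galactose medium with compound for 24 hr at 30 deg C. Growth read by BacTiter-Glo luminescence, so rescue of toxicity appears as activation.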
Potency means the concentration at half of the fitted maximal effect.

| Structure (SMILES) | growth rescue (activation) | Potency |
| --- | --- | --- |
| Cc1ccc(NC(=O)/C=C/c2ccc3c(c2)OCO3)nc1 | inactive: 13.8% | – |
| Cc1cc(C)n2cc(CSc3nnc(-c4ccccc4)o3)nc2n1 | inactive: 1.76% | – |
| COc1ccc(/C=C/C(=O)Nc2ccc(N3CCOCC3)cc2)cc1 | inactive: 12.4% | – |
| Cc1cccc(NC(=O)CN(C)C(=O)/C=C/c2ccccc2)c1C | inactive: -6.9% | – |
| O=c1[nH]c2cc(Cl)c([N+](=O)[O-])nc2[nH]1 | inactive: -8.45% | – |
| COc1ccc(S(=O)(=O)Nc2c(C)nc3nc(C)[nH]n3c2=O)cc1 | inactive: -3.88% | – |
| O=C(CSc1n[nH]c(-c2ccncc2)n1)Nc1ccccc1 | inactive: -36.4% | – |
| Cc1ccc(NC(=O)C2CC2)cc1S(=O)(=O)N1CCOCC1 | inactive: -6.4% | – |
| CCn1c(COc2ccc3c(c2)OCO3)nnc1SCC(=O)c1ccccc1 | inactive: 15.4% | – |
| COCCCNC(=O)c1cc(Sc2nnc(C)s2)nc2ccccc12 | inactive: 2.45% | – |
| O=C(CCNC(=O)c1ccc([N+](=O)[O-])cc1)Nc1ccc(F)c(F)c1F | inactive: -0.903% | – |
| CC(=O)C1=C(O)C(=O)N(c2nccs2)C1c1ccc(F)cc1 (stereo not drawn) | inactive: -6.69% | – |
| CCOc1ccc(NC(=O)CCNS(=O)(=O)c2cccc3nonc23)cc1 | inactive: -2.82% | – |
| CCCC(=O)Nc1c2c(nn1-c1ccc(F)cc1)CS(=O)(=O)C2 | inactive: -2.05% | – |
| CC(=O)C1=C(O)C(=O)N(c2ccc(O)cc2)C1c1ccc(C)cc1 (stereo not drawn) | inactive: -0.267% | – |
| CC1=C(C(=O)OC2CCCC2)C(c2coc3ccccc3c2=O)C2=C(CCCC2=O)N1 (stereo not drawn) | inactive: -1.56% | – |
| Cc1ccc(C(C)C)cc1S(=O)(=O)NC1CC(C)(C)NC(C)(C)C1 | inactive: 6.83% | – |
| CC1=CN2C(=N)/C(=C\c3cn(CCCOc4ccccc4)c4ccccc34)C(=O)N=C2S1 | inactive: -1.72% | – |
| CCOC(=O)c1c(C)[nH]c(C)c1C(=O)COC(=O)c1cc(OC)c(OC)cc1OC | inactive: 14.3% | – |
| CCOC(=O)C1(C)CCCN(C(=O)c2ccc(-c3ccccc3)cc2)C1 (stereo not drawn) | inactive: 14% | – |
| COCc1ccc(C(=O)Nc2cccc(S(=O)(=O)N(C)c3ccccc3)c2)cc1 | inactive: 15.9% | – |
| Cc1ccc(CNC(=O)CN2C(=O)c3ccccc3S2(=O)=O)cc1 | inactive: -1.68% | – |
| Cc1ccc2c(c1)C1CN(C)CCC1N2Sc1ccccc1[N+](=O)[O-] (stereo not drawn) | inactive: -4.38% | – |

| Structure (SMILES) | growth rescue (activation) | Potency |
| --- | --- | --- |
| COc1ccc(Cl)cc1N/C(N)=N/c1nc(C)cc(C)n1 | inactive: 11.3% | – |
| CCn1c(SCC(=O)N2CCCC(C)C2)nc2c1c(=O)n(C)c(=O)n2C (stereo not drawn) | inactive: -3.72% | – |
| CCOc1ccc(Br)cc1CN(CC)CC | inactive: 9.06% | – |
| COc1ccccc1NC(=O)CSc1nc(-c2ccc(C(C)(C)C)cc2)c(C#N)c(=O)[nH]1 | inactive: -15.2% | – |
| CCCN(CC1CC1)C(=O)CSc1nnc(-c2cc(-c3cccs3)nc3ccccc23)o1 | inactive: -6.42% | – |
| O=[N+]([O-])c1ccc(N2CCCCC2)s1 | inactive: -4.9% | – |
| Cc1nc2nc[nH]n2c(=O)c1NS(=O)(=O)c1ccc(F)cc1 | inactive: -0.684% | – |
| COc1ccc(CCN2CCCC(CN(C)Cc3cccc(OC)c3)C2)cc1 (stereo not drawn) | inactive: 6.49% | – |
| CCOC(=O)C1CCCN(C(=O)c2ccc(OC)cc2)CC1 (stereo not drawn) | inactive: 9.96% | – |
| COC(=O)c1c(NC(=O)CCNCc2ccco2)sc2c1CCC2 | inactive: 16.6% | – |
| COc1ccc(-n2c(=S)[nH]c3cc(C(=O)Nc4ccc(C)c(F)c4)ccc3c2=O)c(OC)c1 | inactive: 21.1% | – |
| CCOC(=O)Cc1csc(N/C(=N/S(=O)(=O)c2ccc(Cl)cc2)c2ccccc2)n1 | inactive: -2.98% | – |
| O=C(OCC(=O)N1CCC(Cc2ccccc2)CC1)c1cccnc1Cl | inactive: 8.35% | – |
| CCn1nnc2cc(C(=O)NCCc3ccccc3F)ccc21 | inactive: -2.86% | – |
| Cc1cc(C)cc(N2C(=O)CC(Sc3ncn[nH]3)C2=O)c1 (stereo not drawn) | inactive: 22.6% | – |
| Cn1c(N)c(C(=O)CSc2nnc(N)s2)c(=O)n(C)c1=O | inactive: -22.4% | – |
| CCCCc1c(C)nc(N)[nH]c1=O | inactive: 12% | – |
| CC1CC(C)CN(S(=O)(=O)c2cccc(C(=O)N3C(=O)c4cccc(N)c4C3=O)c2)C1 (stereo not drawn) | inactive: 20.1% | – |
| O=c1cc(COc2ccc(Cl)c(Cl)c2)nc2sccn12 | inactive: 11.3% | – |
| C=CCC1(C#N)C(SC)=NC2=C(C(=O)CC(C)(C)C2)C1c1ccc(Br)cc1 (stereo not drawn) | inactive: 5.16% | – |
| NC(N)=NS(=O)(=O)c1ccc(NC(=S)NC(=O)c2ccncc2)cc1 | inactive: 12.1% | – |
| CSc1ccccc1C(=O)Nc1nc2ccccc2c(=O)[nH]1 | inactive: 2.97% | – |
| COc1ccc(CCNC(=O)c2cc3c(F)cccc3s2)cc1OC | inactive: -15.8% | – |

| Structure (SMILES) | growth rescue (activation) | Potency |
| --- | --- | --- |
| Cc1ccc(NC(=O)c2ccc(Cl)c(S(=O)(=O)Nc3c(C)n(C)n(-c4ccccc4)c3=O)c2)cc1Cl | inactive: 29% | – |
| Cn1cc(C(=O)N2CCc3ccccc3C2)c(=O)c2cc(S(=O)(=O)N3CCOCC3)ccc21 | inactive: 5.75% | – |
| CC(=O)Nc1ccc(S(=O)(=O)NCc2nc(-c3ccccc3)no2)cc1 | inactive: 2.2% | – |
| NS(=O)(=O)c1ccc(Nc2nc(-c3cccc([N+](=O)[O-])c3)cs2)cc1 | inactive: 1.63% | – |
| CCN(CC)S(=O)(=O)c1cccc(C(=O)OC2CC(C)OC2=O)c1 (stereo not drawn) | inactive: -4.1% | – |
| COc1ccc(S(=O)(=O)N2CCCCC2)cc1NC(=O)c1cc(C)on1 | inactive: 14.7% | – |
| COc1cc(C(=O)NCC2CCCCC2)cc(OC)c1OC | inactive: 8.02% | – |
| NS(=O)(=O)c1ccc(NC(=S)Nc2ccc(F)c(F)c2)cc1 | inactive: 8.34% | – |
| COc1ccc(NC(=S)N(CCC(C)C)C(C)c2ccncc2)cc1 (stereo not drawn) | inactive: 3.25% | – |
| O=c1[nH]c2cc3c(cc2cc1CN(Cc1ccco1)C(=S)NCCCN1CCOCC1)OCCO3 | inactive: -3.01% | – |
| COc1ccccc1Cn1c(=S)[nH]c2ccc(Br)cc2c1=O | inactive: 8.76% | – |
| CC1(C)CC(NS(=O)(=O)c2ccc(F)cc2)CC(C)(C)N1 | inactive: -0.139% | – |
| CC(C)(C)c1ccc(OCCOCCn2cnc3ccccc3c2=O)cc1 | inactive: 0.768% | – |
| C/C(CC(=O)Nc1cccc(Cl)c1Cl)=N\NC(=O)c1ccccc1C | inactive: 15.5% | – |
| CCCCN(C)C(=S)Nc1ccc(Oc2ccccc2)cc1 | inactive: 21.2% | – |
| COc1ccc(CNS(=O)(=O)NCc2ccc(OC)c(OC)c2)cc1 | inactive: 11.7% | – |
| Cc1cc(C(=O)CN2C(=O)C(=O)N(Cc3ccccc3)C2=O)c(C)n1-c1ccccc1F | inactive: -9.9% | – |
| COc1cccc(C2NC(=O)c3sc(=S)n(-c4ccccc4)c3N2)c1 (stereo not drawn) | inactive: 7.63% | – |
| O=C(NCCN1CCCCCC1)C1CCN(S(=O)(=O)N2CCOCC2)CC1 | inactive: -13.9% | – |
| O=C(N/N=C\c1ccc2c(c1)OCO2)c1cncc(Br)c1 | inactive: -2.5% | – |
| O=S(=O)(NCCc1csc(-c2ccccc2)n1)c1ccc2c(c1)OCCO2 | – | active: 17.8 µM |
| CCOC(=O)C1(Cc2ccccc2)CCN(Cc2cnn(CC)c2)CC1 | inactive: 6.02% | – |
